Data from the supplement of paper PMC4723716.
± gives the uncertainty stated by the source. Over roughly 9,900 compounds, “viability index relative to DMSO control” has its median near 1; the lowest 2% begin near 0.85. This is one part of the list.

Test system: Plasmodium falciparum NF54 stage V gametocytes
Assay: viability index relative to DMSO control (fraction); higher = less gametocyte killing
Conditions: 2.5 µM, incubation time: 72 h
How it was run: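 Stage V gametocytes of P. falciparum NF54 were held in serum-free screening medium at 0.75% gametocytemia and 1.25% hematocrit, 10 µl per well of a 1,536-well plate, and exposed to compound at 2.5 µM for 72 hr at 37°C under low oxygen. A 3 µl mix of 2.5 µM MitoTracker Red CMXRos with 0.13% saponin was then added for one to two hours, after which one field per well was imaged and red particles of 20–70 µm2 were counted. The viability index equals this count divided by the plate mean from wells given solvent alone.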

[1] = library set: Broad Institute DOS

SMILES: C/C=C/c1cccc(-c2nc(C(=O)NCc3ccccn3)cc3c2[C@H](CCO)N([S@@](=O)C(C)(C)C)C3)c1
- viability index [1]: 1 ± 0.04

SMILES: O=C(CCN1CCCCC1)N[C@H]1CC[C@@H](CCn2cc(-c3cccc(F)c3)nn2)O[C@H]1CO
- viability index [1]: 1.07 ± 0.038

SMILES: N#C[C@@H]1[C@H](c2ccccc2)[C@H](CO)N1C(=O)c1cc(Cl)cc(Cl)c1
- viability index [1]: 1.07 ± 0.089

SMILES: O=C(C[C@@H]1C=C[C@@H](NS(=O)(=O)c2ccc(F)cc2)[C@H](CO)O1)N1CCc2ccccc2C1
- viability index [1]: 1.03 ± 0.094

SMILES: CN1C(=O)c2cc(NC(=O)C3CCOCC3)ccc2OC[C@H]2O[C@H](CC(=O)NCCc3ccncc3)CC[C@H]21
- viability index [1]: 1.06 ± 0.066

SMILES: COc1ccc2c3c([nH]c2c1)[C@H](CO)NC[C@]31CCN(CC1)C(=O)c1ccccc1
- viability index [1]: 0.97 ± 0.13

SMILES: COC(=O)C[C@H]1CC[C@@H]2[C@@H](COc3ccc(NC(=O)c4ccc(C(F)(F)F)cc4)cc3C(=O)N2C)O1
- viability index [1]: 1.053 ± 0.0064

SMILES: C[C@@H]1CN([C@H](C)CO)C(=O)c2c(c3ccccc3n2C)-c2ccccc2CO[C@@H]1CN(C)C(=O)NC1CCCCC1
- viability index [1]: 1.02 ± 0.087

SMILES: O=S(=O)(c1ccccc1)N1CCCCN2[C@H](C1)[C@H](c1ccc(C#CC3CCCC3)cc1)[C@@H]2CO
- viability index [1]: 1.03 ± 0.031

SMILES: COc1cccc(CNC(=O)C[C@@H]2CC[C@H]3[C@H](COc4ccc(NC(=O)c5cccs5)cc4C(=O)N3C)O2)c1
- viability index [1]: 0.93 ± 0.013

SMILES: COc1ccc2c3c([nH]c2c1)[C@H](CO)N(C)C[C@]31CCN(CC1)C(=O)CN(C)C
- viability index [1]: 0.919 ± 0.017

SMILES: CN1C(=O)c2cc(NC(=O)Nc3ccccc3F)ccc2OC[C@H]2O[C@@H](CC(=O)NCCc3ccncc3)CC[C@@H]21
- viability index [1]: 0.976 ± 0.11

SMILES: COCC(=O)N1C[C@]2(CCN(CC2)C(=O)c2cccnc2)c2c([nH]c3cc(OC)ccc23)[C@@H]1CO
- viability index [1]: 0.958 ± 0.054

SMILES: CO[C@H](CN(C)S(=O)(=O)c1ccc(C)cc1)[C@H](C)CN([C@H](C)CO)S(=O)(=O)c1cccc(Cl)c1
- viability index [1]: 0.9977 ± 0.0033

SMILES: CCN(C[C@H]1[C@H](c2ccccc2)[C@H](CO)N1C(C)=O)C(=O)NC1CCCC1
- viability index [1]: 0.961 ± 0.015

SMILES: Cc1noc(C)c1NC(=O)N(C)C[C@H]1OCc2cnnn2CCCC(=O)N([C@H](C)CO)C[C@@H]1C
- viability index [1]: 1.04 ± 0.026

SMILES: O=C(C1CC1)N1C[C@@H]2N[C@H](C1)[C@@H]2c1ccc(-c2ccccc2F)cc1
- viability index (library set: Broad Institute Blood Stage): 0.988 ± 0.046

SMILES: C/C=C/c1cnc2c(c1)C(=O)N([C@H](C)CO)C[C@@H](C)[C@@H](CN(C)C(=O)Nc1cccc(OC)c1)O2
- viability index [1]: 1.01 ± 0.018

SMILES: O=C([C@H]1N[C@H]2c3ccc(/C=C/c4ccccc4)c(=O)n3C[C@H]2[C@@H]1CO)N1CCCCC1
- viability index [1]: 0.992 ± 0.14

SMILES: O=C(NC1CCCC1)N1CCCCN2[C@H](CO)[C@@H](c3ccc(-c4cccnc4)cc3)[C@H]2C1
- viability index [1]: 0.99 ± 0.035

SMILES: C[C@@H](NC(=O)C[C@H]1CC[C@@H]2[C@@H](COc3ccc(NC(=O)C4CCOCC4)cc3C(=O)N2C)O1)c1ccccc1
- viability index [1]: 1.16 ± 0.019

SMILES: CCC(=O)N1[C@@H](CO)[C@@H]2c3ccccc3N(C(=O)c3cnccn3)C[C@@H]21
- viability index [1]: 1.01 ± 0.013

SMILES: OC[C@@H]1Nc2ccc(-c3cccc(F)c3)cc2[C@H]2[C@@H]1CCN2Cc1ccc(F)cc1
- viability index [1]: 1.05 ± 0.045

SMILES: CNC(=O)C[C@H]1CC[C@H]2[C@H](COc3ccc(NS(=O)(=O)c4ccc(F)cc4)cc3C(=O)N2C)O1
- viability index [1]: 1.05 ± 0.054

SMILES: Cc1noc(C)c1S(=O)(=O)Nc1ccc2c(c1)C(=O)N([C@H](C)CO)C[C@H](C)[C@H](CN(C)C(=O)Nc1cccc3ccccc13)OCCCC[C@H](C)O2
- viability index [1]: 0.983 ± 0.0032

SMILES: C[C@H](CO)N1C[C@H](C)[C@H](CN(C)C(=O)[C@H]2CCCN2C)OCc2ccccc2-c2ccccc2C1=O
- viability index [1]: 1.02 ± 0.019

SMILES: COc1ccc(C[C@@H]2CCn3cc(nn3)COC[C@@H](C)NC2=O)cc1
- viability index [1]: 1.03 ± 0.042

SMILES: N#C[C@@H]1[C@@H](c2ccccc2-c2ccc(F)cc2)[C@H](CO)N1C(=O)Cc1cccnc1
- viability index [1]: 1.15 ± 0.1

SMILES: C[C@@H]1CN([C@@H](C)CO)C(=O)c2c(c3ccccc3n2C)-c2ccccc2CO[C@H]1CN(C)C(=O)Nc1ccccc1C(F)(F)F
- viability index [1]: 0.805 ± 0.084

SMILES: COc1cccc(-c2ccc([C@H]3[C@@H](CO)N4C(=O)CN(C(=O)c5cccnc5)C[C@@H]34)cc2)c1
- viability index [1]: 1.04 ± 0.017

SMILES: Cc1ccccc1-c1cnc2c(c1)C(=O)N([C@H](C)CO)C[C@H](C)[C@@H](CN(C)Cc1ccccc1F)O2
- viability index [1]: 1.06 ± 0.015

SMILES: N#C[C@@H]1[C@H](c2ccccc2C2=CCCCC2)[C@@H](CO)N1C(=O)CN1CCOCC1
- viability index [1]: 1.13 ± 0.075

SMILES: CN1C(=O)c2cc(NC(=O)C3CCOCC3)ccc2OC[C@@H]2O[C@H](CC(=O)NCc3ccccc3F)CC[C@@H]21
- viability index [1]: 1.01 ± 0.032

SMILES: C/C=C/c1ccccc1[C@@H]1[C@@H](C#N)N(C(=O)CN2CCOCC2)[C@@H]1CO
- viability index [1]: 1.16 ± 0.14

SMILES: COc1ccccc1S(=O)(=O)N(C)C[C@H]1OCc2cn(nn2)CCCC(=O)N([C@@H](C)CO)C[C@@H]1C
- viability index [1]: 1.06 ± 0.053

SMILES: O=C(O)C[C@H]1C[C@H]2c3cc(NC(=O)Cc4ccncc4)ccc3O[C@H]2[C@@H](CO)O1
- viability index [1]: 1.028 ± 0.01

SMILES: O=C(C[C@@H]1CC[C@H](NC(=O)CN2CCOCC2)[C@H](CO)O1)NC1CCC1
- viability index [1]: 1.17 ± 0.053

SMILES: O=C(C[C@@H]1CC[C@H](NC(=O)C2CCOCC2)[C@@H](CO)O1)NCC1CCCCC1
- viability index [1]: 1.1 ± 0.079

SMILES: CCC(=O)N1[C@@H](CO)[C@H](c2ccccc2)[C@@H]1CN(C)C(=O)CN1CCOCC1
- viability index [1]: 0.951 ± 0.014

SMILES: CO[C@H]1CN(C)C(=O)c2cc(NC(=O)Nc3cccc(Cl)c3)ccc2OC[C@H](C)N(C(=O)Nc2c(C)noc2C)C[C@@H]1C
- viability index [1]: 1.08 ± 0.027

SMILES: O=C(C1CCOCC1)N1CC2(C1)[C@H](c1ccccc1)[C@H](CO)N2C(=O)CC1CC1
- viability index [1]: 1.1 ± 0.067

SMILES: CCC(=O)NC[C@@H]1[C@@H](c2ccc(-c3cccc(F)c3)cc2)[C@@H](CO)N1CC1CC1
- viability index [1]: 1.067 ± 0.01

SMILES: COc1ccc2c3c([C@@H](CO)N(C)C[C@]33CN(C3)S(=O)(=O)c3cccc(C)c3)n(C)c2c1
- viability index [1]: 0.94 ± 0.11

SMILES: CN1C(=O)c2cc(NS(=O)(=O)c3ccccc3F)ccc2OC[C@H]2O[C@H](CC(=O)NC3Cc4ccccc4C3)CC[C@H]21
- viability index [1]: 0.872 ± 0.018

SMILES: C[C@H]1CN([C@@H](C)CO)C(=O)CCCn2nncc2CO[C@H]1CN(C)C(=O)Nc1ccc2c(c1)OCCO2
- viability index [1]: 1.028 ± 0.01

SMILES: Cc1noc(C)c1NC(=O)N[C@@H]1C=C[C@H](CC(=O)Nc2ccc(-c3ccccc3)cc2)O[C@H]1CO
- viability index [1]: 0.9758 ± 0.0078

SMILES: COc1ccccc1C#Cc1ccc([C@@H]2[C@H]3CN(C(=O)C4CCC4)CCCCN3[C@H]2CO)cc1
- viability index [1]: 1 ± 0.035

SMILES: O=C(NCC[C@@H]1CC[C@H](NC(=O)c2ccncc2)[C@H](CO)O1)Nc1ccc(Cl)cc1
- viability index [1]: 1.16 ± 0.034

SMILES: C[C@H]1CC(=O)N[C@H](c2ccccc2)C/C=C\C[C@@H](c2ccccc2)NC1=O
- viability index [1]: 1.049 ± 0.0043

SMILES: COc1ccc(C#Cc2ccc([C@@H]3[C@H]4CN(C(=O)NC(C)C)CC(=O)N4[C@H]3CO)cc2)cc1
- viability index [1]: 1.11 ± 0.053

SMILES: CN(C)C(=O)C[C@H]1CC[C@@H]2[C@H](COC[C@H](O)CN2S(=O)(=O)c2ccccc2Cl)O1
- viability index [1]: 1.09 ± 0.032

SMILES: COc1ccc2c3c([C@@H](CO)N(CC4CC4)C[C@]33CN(C3)C(=O)CC3CC3)n(C)c2c1
- viability index [1]: 0.957 ± 0.11

SMILES: CCCNC(=O)N1CC2(C1)[C@@H](c1ccccc1)[C@H](CO)N2C(=O)CC1CC1
- viability index [1]: 1.16 ± 0.018

SMILES: N#Cc1cccc(-c2ccc([C@@H]3[C@@H]4CN(C(=O)c5ccc6c(c5)OCO6)C[C@H]3N4)cc2)c1
- viability index [1]: 0.896 ± 0.077

SMILES: COc1ccc(S(=O)(=O)N(C)C[C@@H]2Oc3ccc(N(C)C)cc3CC(=O)N([C@H](C)CO)C[C@@H]2C)cc1
- viability index [1]: 1.03 ± 0.033

SMILES: CO[C@H](CN(C)Cc1cc(F)ccc1F)[C@@H](C)CN([C@H](C)CO)S(=O)(=O)c1ccc(C)cc1
- viability index [1]: 1.11 ± 0.028

SMILES: CNC(=O)C[C@H]1CC[C@H]2[C@H](COc3ccc(NC(=O)c4ccccc4F)cc3C(=O)N2C)O1
- viability index [1]: 1.11 ± 0.07

SMILES: N#C[C@H]1[C@@H](c2ccccc2-c2cccc(F)c2)[C@H](CO)N1C(=O)C1CC1
- viability index [1]: 1.18 ± 0.045

SMILES: O=C(C[C@H]1CC[C@@H]2[C@H](COC[C@@H](O)CN2C(=O)Nc2cccc(F)c2)O1)NCCCN1CCOCC1
- viability index [1]: 1 ± 0.053

SMILES: COc1ccc2c3c([C@@H](CO)N(C[C@]33CN(C3)C(=O)c3ccccn3)S(=O)(=O)c3ccc(C)cc3)n(C)c2c1
- viability index [1]: 0.97 ± 0.014

SMILES: O=C(C1CCCCC1)N1CC(=O)N2[C@H](CO)[C@H](c3ccc(-c4ccccc4F)cc3)[C@H]2C1
- viability index [1]: 0.994 ± 0.028

SMILES: COc1ccc(-c2ccc([C@@H]3[C@@H]4CN(S(=O)(=O)c5ccccc5C)C[C@H]3N4)cc2)cc1
- viability index [1]: 0.713 ± 0.11

SMILES: C[C@H](CO)N1C[C@H](C)[C@H](CN(C)Cc2ccccc2C(=O)O)OCc2cnnn2CCCC1=O
- viability index [1]: 1.04 ± 0.051

SMILES: C[C@H](CO)N1C[C@H](C)[C@@H](CN(C)S(=O)(=O)c2cn(C)cn2)Oc2c(NC(=O)Nc3ccc(C(F)(F)F)cc3)cccc2C1=O
- viability index [1]: 1.03 ± 0.13

SMILES: Cc1ccccc1-c1ccc([C@H]2[C@@H]3CN(Cc4ccc5c(c4)OCO5)C[C@H]2N3)cc1
- viability index [1]: 1.06 ± 0.057

SMILES: C[C@H]1CN([C@@H](C)CO)C(=O)c2cccc(NC(=O)c3ccc(-c4nccs4)cc3)c2O[C@@H]1CN(C)C(=O)Nc1ccc(C(F)(F)F)cc1
- viability index [1]: 1.03 ± 0.067

SMILES: CN(C)CC(=O)Nc1ccc2c(c1)C(=O)N(C)[C@H]1CC[C@H](CC(=O)Nc3cccc(Cl)c3)O[C@@H]1CO2
- viability index [1]: 1.01 ± 0.083

SMILES: COc1ccc(-c2ccccc2[C@H]2[C@@H](C#N)N(C(=O)NC3CCCCC3)[C@H]2CO)cc1
- viability index [1]: 1.09 ± 0.012

SMILES: O=C(CC1CC1)N1CC(=O)N2[C@H](CO)[C@@H](c3ccc(/C=C/c4ccccc4)cc3)[C@H]2C1
- viability index [1]: 1.1 ± 0.031

SMILES: O=S(=O)(c1cccs1)N1CCCCN2[C@H](CO)[C@H](c3ccc(/C=C/c4ccccc4)cc3)[C@@H]2C1
- viability index [1]: 0.993 ± 0.045

SMILES: CN(C)C(=O)C[C@H]1C[C@@H]2c3cc(NC(=O)Nc4ccc(F)cc4)ccc3O[C@@H]2[C@H](CO)O1
- viability index [1]: 1.1 ± 0.049

SMILES: CC(=O)N1[C@H](CO)[C@H](c2ccccc2)[C@H]1CN(C)S(=O)(=O)c1ccccc1
- viability index [1]: 1.0021 ± 0.00068
